{"source": "the RNAGym collection of RNA variant scans (doi:10.7554/elife.90254)", "parents": {"B1": {"name": "LINE1-full (parent)", "chain": "UACGUAGGUGGUUUUCCCCUGAUAGUGCUAAGGGGGCCUGGAAGUUUGGACUGGGCAGAGCUCAACACAGCGUGGCAAAGUGGCUGUGGCUAGACUGCCUCUCUGGAUUCCUCGUCACUCAGCAGGGCAUCUCUGAGAGAAAUGCC"}}, "note": "The source gives no read counts; variants with many changes may rest on few reads."}
{"variants_of": "B1", "assay": "self-cleavage, relative activity (ratio to wild type); higher = more cleavage; in vitro, sequencing; the parent is a self-cleaving ribozyme"}
{"variant": "UACGUAGGUGGUUUUCCCCUGAUAGUGCUAAGGGGGCCUGGAAGUUAGGACUGGGCAGAGCUCAACACAGCGUGGCAAUGUGGCUGUGGCUAGACUGCCUCUCUGGAUUCCUCGUCACUCAGCAGGGCAUCUCUGAGAGAAACGCC", "self-cleavage": 2.34}
{"variant": "UACGUAGGUGGUUUUCCCCUGAUAGUGCUAAGGGGGCCUGGAAGUUCGGGCUGGGCAGAGCUCAACACAGCGCGGCAAAGUGGCUGUGGCUAGACUGCCUCUCUGGAUUCCUCGUCACUCAGCAGGGCAUCUCUGAGAGAAGUGCC", "self-cleavage": 1.15}
{"variant": "UACGUAGGUGGUUUUCCCCUGAUAGUGCUAAGGGGGCCUGGAAGUUAGGACUGGGCAGAGCUCAACACAGCGUGGCAAAGUGGCUGUGGCUAGACUGCCUCUCUGGAUUCCUCGUCACUCAGCGGGGCAUCUCAGAGAGGAAUGCC", "self-cleavage": 0.07}
{"variant": "UACGUAGGUGGUUUUCCCCUGAUAGUGCUAAGGGGGCCUGGAAGUUAGGACUGGGCAGAGCCCAACUCAGCGUGGCAAAGUGGCUGUGGCUAGACUGCCUCACUGGAUUCCUCGUCACUCAGCAGGGCAUCUCUGAGAGAAAUGCC", "self-cleavage": 0.03}
{"variant": "UACGUAGGUGGUUUUCCCCUGAUAGUGCUAAGGGGGCCUGGAAGUUAGGACUGGGCAGAGCCCAACACAGCGUGGCAAAGUGGCUGUGGCUAGACUGCCACUCCGGAUUCCUCGUCACUCAGCAGGGCAUCUCUGAGAGAAAUGCC", "self-cleavage": 0.03}
{"variant": "UACGUAGGUGGUUUUCCCCUGAUAGUGCUAAGGGGGCCUGGAAGUUAGGACUGGGCAGAGCUCAACACAGCGUGGCAAAGUGGCUGAGGCUAGACUGCCUCUCUGGAUUCCACGUCACUCAGCAGGGCAUCUCUGAGAGAAAUGCC", "self-cleavage": 0.09}
{"variant": "UACGUAGGUGGUUUUCCCCUGAUAGUGCUAAGGGGGCCUGGAAGUUAGGACUGGGCAGAGCUCAACACAGCGUGGCAAAGUGGCUGUGGCUAGACUGCCUCUCUGGAUUCCUCGUCGCUCAGCAGGGCAUCUCUGAGAGAAAGGCC", "self-cleavage": 2.8}
{"variant": "UACGUAGGUGGUUUUCCCCUGAUAGUGCUAAGGGGGCCUGGAAGUUCGGUCUGGGCAGAGCUCAACACAGCGUGGCAAAGUGGCUGUGGCUAGACUGCCUCUCUGGCUUCCUCGUCACUCAGCAGGGCACCUCUGAGAGAAAUGCC", "self-cleavage": 1.67}
{"variant": "UACGUAGGUGGUUUUCCCCUGAUAGUGCUAAGGGGGCCUGGAAGUUAGGACUAGGCAGAGCUCAACACAGCGUGGCAGAGUGGCUGUGGCUAGACAGCCUCUCUGGAUUCCUCGUCACUCAGCAGGGCAUCUCUGAGAGAAAUGCC", "self-cleavage": 0.06}
{"variant": "UACGUAGGUGGUUUUCCCCUGAUAGUGCUAAGGGGGCCUGGAAGUUAGGACUGGGCAGAGCUCAACACAGCGUGGCAAAGUGGCUGUGGCUAGACUGCAUCUCUGGAAUCCUCGUCACUCAGCAGGGCAUCUCUGAGAGAAAUGCC", "self-cleavage": 0.63}
{"variant": "UACGUAGGUGGUUUUCCCCUGAUAGUGCUAAGGGGGCCUGGAAGUUAGGACUGGGCAGAGCUCAACACAGCGAGGCAAAGUGGCUGUGGCUAGACUGCCUCUCUGGAUUCCUCGUCACUCAGCAGGGCAUCUCUGAGAGGAACGCC", "self-cleavage": 1.34}
{"variant": "UACGUAGGUGGUUUUCCCCUGAUAGUGCUAAGGGGGCCUGGAAGUUAGGACUGGGCAGAGCUCAACACAGCGUGGCAAAGUGGCUGUGGCUAGACUGCCUCUCUGGGUUCCUCGUCACUCAGCAGGGCAUCUCUGAGGGAAGUGCC", "self-cleavage": 0.32}
{"variant": "UACGUAGGUGGUUUUCCCCUGAUAGUGCUAAGGGGGCCUGGAAGUUAGGACUGGGCAGAGCUCAACACAGCGUGGCAAAGUGGCUGUGGCUAGACCGCCUCUCUGGAUUCCUCGUCACUCACCAGGGCGUCUCUGAGAGAAAUGCC", "self-cleavage": 0.09}
{"variant": "UACGUAGGUGGUUUUCCCCUGAUAGUGCUAAGGGGGCCUGGAAGUUAGGACUGGGCAGAGCUCAACAAAGCGUGGCAAAGUGGCUGUGGCUCGGCUGCCUCUCUGGGUUCCUCGUCACUCAGCAGGGCAUCUCUGAGAGAAUUGCC", "self-cleavage": 0.1}
{"variant": "UACGUAGGUGGUUUUCCCCUGAUAGUGCUAAGGGGGCCUGGAAGUUAGGACUGGGCAGAGCUCAACACAGCGCGGCAAAGUGGCUGUGGCUAGACUGCCUCUCUGGACUCCUCGUCACUCAGCAGGGCAUCUCCGAGAGAAAUGCC", "self-cleavage": 1.67}
{"variant": "UACGUAGGUGGUUUUCCCCUGAUAGUGCUAAGGGGGCCUGGAAGUUAGGACUGGGCAGAGCUCAACACAGCGUGGCAAAGUGGCUGUGGCUAGACUGCCUCUCUGGAUUCCUCGUCACUCGGCAGGGCAUCUCUGAGUGAAAUGCC", "self-cleavage": 1.37}
{"variant": "UACGUAGGUGGUUUUCCCCUGAUAGUGCUAAGGGGGCCUGGAAGUUCGGUCUGGGCAGAGCUCUACACAGCGUGGCAAAGUGGCUGUGGCUAGACUGCCACUCUGGAUUCCUCGUCACUCAGCAGGGCAUCUCUGAGAGAAAUGCC", "self-cleavage": 0.44}
{"variant": "UACGUAGGUGGUUUUCCCCUGAUAGUGCUAAGGGGGCCUGGAAGUUAGGACUGAGCAGAGCUCAACACAGCGUGGCAAAGUGGCUGUGGCUAGACUGCCUCUCUGGAUUCCCCGUCACUCAGCAGGUCAUCUCUGAGAGAAAUGCC", "self-cleavage": 0.38}
{"variant": "UACGUAGGUGGUUUUCCCCUGAUAGUGCUAAGGGGGCCUGGAAGUUAGGACUGGGCAGAGCUCAACACAGCGUGGCAAAGUGGCGGUGGCUAGACUGCCUCUCUGGUUUCCUCGUCACUCAGCAGGGCAUCUCUGAGAGAAAUGCC", "self-cleavage": 0.1}
